Reference: article PMC4336329 (PLoS ONE, 2015)
The whole screen tested about 310,000 compounds, of which about 14,000 (4.5%) showed an effect of 50% or more. The effect is printed as a negative number. The list shows a part of the results.

biological target: human ether-à-go-go-related gene (hERG) potassium channel (human, UniProt Q12809); test: primary screen, population patch clamp on CHO cells stably expressing hERG
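Further: peak tail current of the secondary pulse compared with the same well before compound.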

human ether-à-go-go-related gene (hERG) potassium channel, sequence (Q12809 whole entry, looked up): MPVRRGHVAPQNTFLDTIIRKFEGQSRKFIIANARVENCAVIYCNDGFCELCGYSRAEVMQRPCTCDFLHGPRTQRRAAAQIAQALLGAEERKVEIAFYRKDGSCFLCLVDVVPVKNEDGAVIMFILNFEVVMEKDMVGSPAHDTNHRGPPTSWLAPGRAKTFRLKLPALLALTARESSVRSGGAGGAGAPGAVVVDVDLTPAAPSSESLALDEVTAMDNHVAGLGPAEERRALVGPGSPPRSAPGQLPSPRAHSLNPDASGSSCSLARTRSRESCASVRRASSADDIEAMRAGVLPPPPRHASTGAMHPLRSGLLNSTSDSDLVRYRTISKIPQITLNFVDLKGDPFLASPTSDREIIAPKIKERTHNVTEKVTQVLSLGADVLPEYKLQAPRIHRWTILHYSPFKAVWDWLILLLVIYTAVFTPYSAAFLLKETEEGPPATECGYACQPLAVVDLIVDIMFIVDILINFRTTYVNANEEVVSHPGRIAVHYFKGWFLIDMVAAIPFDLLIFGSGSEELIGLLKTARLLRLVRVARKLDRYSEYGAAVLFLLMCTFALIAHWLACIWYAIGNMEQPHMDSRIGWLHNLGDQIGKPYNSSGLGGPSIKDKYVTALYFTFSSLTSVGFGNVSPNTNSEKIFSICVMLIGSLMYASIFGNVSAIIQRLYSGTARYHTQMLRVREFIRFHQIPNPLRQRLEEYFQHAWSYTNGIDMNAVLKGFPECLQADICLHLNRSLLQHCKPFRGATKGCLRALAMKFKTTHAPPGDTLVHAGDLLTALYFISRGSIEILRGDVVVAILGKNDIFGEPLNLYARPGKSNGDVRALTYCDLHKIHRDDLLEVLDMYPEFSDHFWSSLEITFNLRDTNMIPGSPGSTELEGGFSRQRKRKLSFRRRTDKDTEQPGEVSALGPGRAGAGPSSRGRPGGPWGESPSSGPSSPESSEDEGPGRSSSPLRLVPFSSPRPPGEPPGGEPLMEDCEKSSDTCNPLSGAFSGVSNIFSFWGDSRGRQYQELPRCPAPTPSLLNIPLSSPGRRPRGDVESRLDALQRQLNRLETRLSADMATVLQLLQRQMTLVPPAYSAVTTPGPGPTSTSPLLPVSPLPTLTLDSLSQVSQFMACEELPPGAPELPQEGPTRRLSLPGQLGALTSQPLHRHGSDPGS

SMILES | hERG current change (%, negative = inhibition) at 10uM [%]
Cc1cccc(CSc2nc3c(c(=O)n2C)SCC3)c1 | -11.5
O=C(CCNc1cccc(F)c1)c1cc2ccccc2o1 | 9.42
COc1cccc(OC)c1C(=O)Nc1ccc(N2CCN(C(=O)c3ccco3)CC2)cc1 | 9.97
Cc1ccc(OCc2n[nH]c(=S)n2-c2ccccc2)cc1C | 16.2
COc1ccc(OC)c(/C=C2\Oc3cc(OCC(=O)N4CCC(C(=O)O)CC4)ccc3C2=O)c1 | -0.513
COC(=O)c1ccc(C2/C(=C(/O)c3ccc4c(c3)CC(C)O4)C(=O)C(=O)N2Cc2ccncc2)cc1 (centres unmarked) | 14.2
Cc1ccccc1CN1CCN(CC(=O)NCCCN2CCN(c3ccc(F)cc3)CC2)C1=O | -71.2
COc1ccc(OCCN(C)Cc2ccccc2)cc1 | -41.9
COc1ccccc1C(=O)Nc1ccc(S(=O)(=O)N2CCOCC2)cc1 | -12.6
Cc1nnc(SCC(=O)Nc2ccccc2F)n1Cc1ccco1 | -0.661
Cc1ccc[n+](CC(=O)Nc2ccc([N+](=O)[O-])cc2Cl)c1.[Cl-] | -1.45
O=C(N/N=C/c1ccc([N+](=O)[O-])o1)C(=O)Nc1ccc(C(=O)O)cc1 | 23
CC1(C)N=C(c2ccccn2)C(C)(C)N1O | 24.3
CONc1nc2nonc2nc1NOC | 14.8
Cc1ccc(C2=NN(C(=O)c3ccco3)C(O)(C(F)(F)F)C2)cc1 (centres unmarked) | -34
O=C(Nc1ccccc1C(=O)N1CCOCC1)c1ccc(Br)cc1 | -23.8
O=C1C2CCCN2C(=O)N1CCCCN1CCN(c2cccc(Cl)c2)CC1 (centres unmarked) | -65.6
O=C(CC1C(=O)NCCN1Cc1c(F)cccc1Cl)NCCCN1CCCC1=O (centres unmarked) | 14.2
O=C(Nc1ncn[nH]1)c1ccc(Cl)cc1Cl | -4.04

SMILES | hERG current change (%, negative = inhibition) at 10uM [%]
O=C(Nc1cccc(F)c1)C1CCCN1C(=O)OCc1ccccc1 (centres unmarked) | 1.4
CCn1cnc2cc(NCc3nc4ccccc4n3Cc3ccccc3)ccc21 | -65.6
Cl.O=C(O)C1CCCN(CCC=C(c2ccccc2)c2ccccc2)C1 (centres unmarked) | -46
CC(C)CCN1C(=O)c2ccc(C(=O)OCn3nnc4ccccc4c3=O)cc2C1=O | 12.7
CC(C)P(=O)(c1cccc(C(=O)O)c1)C(C)C | 13.3
CC(=O)Nc1ccc(S(=O)(=O)Oc2ccc(C=O)cc2)cc1 | -0.403
CCN(CC)CCNC(=O)c1cc(S(=O)(=O)N2CCc3ccccc32)cn1C | -66.1
O=C(Cn1cnc2scc(-c3ccc(Br)cc3)c2c1=O)N1CCOCC1 | -9.95
O=C(CSc1nnc(-c2ccc(S(=O)(=O)N3CCCC3)cc2)o1)NCC1CCCO1 (centres unmarked) | 3.55
COc1cc(C(=O)Nc2nnc(C)s2)c([N+](=O)[O-])cc1OC | -16.8
CCc1nnc(NC(=O)C(NS(=O)(=O)c2ccc3c(c2)OCCO3)C(C)C)s1 (centres unmarked) | -4.87
COc1cccc(CC(C(=O)Nc2cc(C)ccc2C)c2nn[nH]n2)c1OC (centres unmarked) | -10.4
Cc1cccc(OCC(=O)NS(=O)(=O)c2ccc(Br)cc2)c1 | 6.23
Cc1ccccc1-n1c(C)n[nH]c1=S | 19.3
Cc1csc(SCC(=O)Nc2nc3ccccc3s2)n1 | 3.27
CCCCNC(=O)O[C@H]1C[C@@H]2CCN3C(=O)CCC[C@H]([C@H]1CC)[C@H]23 | -8.19
CCOCCCNc1c(CC)c(C)c(C#N)c2nc3ccccc3n12 | -42.3
CCOC(=O)c1c(NC(=O)CSc2nnnn2-c2ccccc2)sc2c1CCC(C)C2 (centres unmarked) | -5.66
CN1c2ccccc2-c2nc3ccccc3n2C1c1ccncc1 (centres unmarked) | -13.1

SMILES | hERG current change (%, negative = inhibition) at 10uM [%]
CCc1nnc(NC(=O)CCNC(=O)c2ccccc2Cl)s1 | 13.2
CCOc1cc(CNn2cnnc2)cc(Br)c1OCC(=O)NC(C)(C)C | 12
Cc1ccc(NC(=O)Cn2nc(C(=O)O)c3ccccc3c2=O)c([N+](=O)[O-])c1 | 8.22
Cc1ccc2nc(-c3cccnc3SCC(=O)N3c4ccccc4CC3C)[nH]c2c1 (centres unmarked) | 2.71
CCCC1(C)Nc2ccccc2-c2nc3ccccc3n21 (centres unmarked) | 3.68
Cc1ccc(-n2nnnc2SCC(=O)c2c(N)n(CC(C)C)c(=O)n(C)c2=O)cc1 | -69.1
Cc1ccc(-c2cc(C(=O)O)c3cc(Br)ccc3n2)s1 | 16.7
O=C(c1ccc2c(c1)OCO2)C1CCCN(Cc2cn[nH]c2-c2ccccc2)C1 (centres unmarked) | -72.2
O=C1CN(C(=O)COC(=O)c2cccc(OCc3ccccc3)c2)c2ccccc2N1 | -0.134
O=S(=O)(c1cnc(Cl)c(Br)c1)N1CCN(c2ncccn2)CC1 | 30
COc1ccccc1OCCn1cc(/C=N/n2cnnc2)c2ccccc21 | -15.4
CCCCN(CC)C(=O)Cn1nc(Cc2ccncc2)c2ccccc2c1=O | -10.6
O=[N+]([O-])c1ccc(N2CCC(=NOCc3ccc(Cl)cc3)CC2)cc1 | -54.5
CSc1nccc(-c2sc(SC)c(C#N)c2-c2ccccc2)n1 | 16.7
CC1CCC(NC(=O)CCNC(=O)c2ccccc2)CC1 (centres unmarked) | 4.03
CCc1nnc(NC(=O)CCNC(=O)c2ccco2)s1 | 18.3
COC(=O)COc1cc(OCC(=O)OC)c2c(-c3ccccc3)cc(=O)oc2c1 | -3.73
CCCN(CCC)C(=O)Cn1c(=O)n(CCCCC(=O)NCc2ccco2)c(=O)c2ccccc21 | -5.31
